“And” between values parts separate entries of the source, which are not always exact repeats. Identical values can stand only once.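 Method: 48-hour compound exposure of cells in 96-well plates, five concentrations, linear interpolation of endpoints. Here, GI50 denotes the concentration required for 50% inhibition of growth. TGI: concentration producing complete growth inhibition.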
What follows are molecules tested on NCI-H322M lung (assay: inhibition of tumour cell growth, NCI panel, 48 h).
O=C(C(=C(I)I)c1ccccc1)c1ccccc1 was tested, and the TGI was 51.1 µM.
With O=c1c2cc3ccccc3n2c(=O)c2cc3ccccc3n12 the TGI was greater than 100 µM.
Molecule NC(Cc1ccccc1)c1nccs1 (stereo unspecified) has a TGI greater than 100 µM.
COc1cc(N=Nc2ccc(OC)c(S(=O)(=O)O)c2)c(C)cc1N=Nc1ccc(/C=C/c2ccc(N=[N+]([O-])c3ccc(/C=C/c4ccc(N=Nc5cc(C)c(N=Nc6ccc(OC)c(S(=O)(=O)O)c6)cc5OC)cc4S(=O)(=O)O)c(S(=O)(=O)O)c3)cc2S(=O)(=O)O)c(S(=O)(=O)O)c1 gave a TGI greater than 100 µM.
CSc1nc(Cl)c2c(n1)Sc1nc3ccccc3n1C2O (stereo unspecified) gave a TGI of 65.8 µM.
In the case of CNC(=O)c1ccccc1Nc1nc(Nc2ccc3c(c2OC)CCC[C@H](N2CCN(CCO)CC2)C3)ncc1Cl, the GI50 is reported as 0.856 µM and 0.517 µM and the TGI is reported as 9.86 µM and > 10 µM.
With C=C(C)[C@@H]1CC[C@]2(C(=O)NS(=O)(=O)c3ccccc3)CC[C@]3(C)[C@H](CC[C@@H]4[C@@]5(C)CC[C@H](OC(=O)NS(=O)(=O)c6ccccc6)C(C)(C)[C@@H]5CC[C@]43C)[C@@H]12 the GI50 was 1.79 µM and the TGI was 4.72 µM.
COc1ccc(C2C=C(c3ccc(C)cc3)N(c3ccc(OC)cc3[N+](=O)[O-])C3C(=O)OC(=O)C23)c(OC)c1 (stereo unspecified) showed a TGI of 81.3 µM.
CC(=O)Oc1ccn2nc(C)c(Br)c2c1 gave a TGI greater than 100 µM.
For CC(C)(C)c1ccnc(N=C2N=C(Nc3cc(C(C)(C)C)ccn3)c3ccccc32)c1, the TGI was 47.9 µM.
Molecule COc1cc(/C=N/N=C(\N)NO)c([N+](=O)[O-])cc1OC has a TGI greater than 100 µM.
With COC(=O)[C@H](Cc1cn(C)cn1)NC(=O)[C@H](Cc1ccccc1)NC(=O)Nc1cc(C(F)(F)F)cc(C(F)(F)F)c1 the GI50 was 18.9 µM and the TGI was 33.5 µM.
With CCC[CH2][Sn]1([CH2]CCC)[S]CC[N]1S(=O)(=O)c1ccc(C)cc1 the GI50 was 1.71 µM and the TGI was 3.08 µM.
In the case of CC(C)(C)/C(O)=C\c1nc2cc(F)c(F)cc2[nH]c1=O, the TGI is reported as greater than 100 µM.
C=C1CCC2C3(C)COC(c4ccccc4Cl)OC3CCC2(C)C1/C=C/C1=CCOC1=O (stereo unspecified) was tested, and the GI50 was greater than 100 µM and the TGI was greater than 100 µM.
With CC(SCc1ccccc1)C(=O)O (stereo unspecified) the TGI was greater than 100 µM.
CCOC(=O)c1csc(NC(=O)CCN2CCCC2)n1 showed a TGI greater than 100 µM.
For CSc1ncc2c(n1)-c1ccccc1OC2NC1CC1 (stereo unspecified), the TGI was greater than 100 µM.
Molecule CC(C)(C)OC(=O)Nc1ccc2c(c1)C(NC(=O)Nc1cccc(C#N)c1)CC(C)(C)O2 (stereo unspecified) has a GI50 of 24.3 µM and a TGI greater than 100 µM.
With C1=CCCC=CCC1.C[PH+](C)C.C[PH+](C)C.C[PH+](C)C.[Cl-].[Ir] the GI50 was greater than 100 µM and the TGI was greater than 100 µM.
CSc1ccc(/C=C2\N=C(c3ccccc3)N(c3nc4cc(Cl)c(F)cc4s3)C2=O)cc1 was tested, and the TGI was greater than 100 µM.
CC(=O)Oc1ccc2c(c1)C(=O)c1nc(C)c(C)nc1C2=O showed a TGI greater than 100 µM.
In the case of Nc1ccc(/C=C/c2ccc3cccnc3c2)cc1, the TGI is reported as greater than 100 µM.
For C/C(=C\CSCC(N)C(=O)O)CC/C=C(\C)CNc1ccccc1 (stereo unspecified), the TGI was greater than 100 µM.
With C/C=C(\C)C(=O)OC1/C=C(\C)CC/C=C(\C)CC2OC(=O)C(C)(OC(C)=O)C12 (stereo unspecified) the TGI was greater than 100 µM.
CCCCn1c(=O)c(/C=C/C(=O)/C=C/c2cc3ccccc3n(CCCC)c2=O)cc2ccccc21 was tested, and the GI50 was 1.64 µM and the TGI was 3.32 µM.
With O=C([O-])CC(=O)[O-].[NH-][C@@H]1CCCC[C@H]1[NH-].[Pt+4] the GI50 was greater than 87.2 µM and the TGI was greater than 100 µM.
With O=c1c2c3c(sc2nc2n1N=C(c1ccc(Br)cc1)CS2)CCCC3 the TGI was greater than 100 µM.
Work on COc1ccc2c(c1)CCc1c-2n[nH]c1-c1[nH]nc2c1CCc1cc(OC)ccc1-2 yielded a TGI greater than 100 µM.
CN(C)/N=N/c1nc2c(c(=O)n(C)c(=O)n2C)n1CC1CO1 (stereo unspecified) gave a TGI of 57.3 µM.
Molecule NC(=O)C1CCN(Cc2c(Cl)c(Cl)c(CN3CCC(C(N)=O)CC3)c(Cl)c2Cl)CC1 has a TGI greater than 100 µM.
Molecule C=C1C[C@@H]2O[C@H]3[C@H]4[C@@H](C[C@@H](C)[C@@H](OC(C)=O)[C@H]42)[C@@H](C)CO[C@@]3(C)[C@H](OC(=O)CCCCCCC)CC1=O has a TGI of 50.7 µM.
In the case of Nc1cccc2c1C(=O)c1cccc(NC(=O)c3ccccc3)c1C2=O, the GI50 is reported as 1.52 µM and the TGI is reported as greater than 100 µM.
In the case of COc1ccc2c(c1)CN1CCc3c(cc(OC)c(OC)c3OC)C1C2 (stereo unspecified), the TGI is reported as greater than 100 µM.
CNC(=O)CN(CC(=O)O)C(=O)NC showed a TGI greater than 100 µM.
C=C1[C@@H]2CCC3[C@]4(C)C(CC[C@@]5(C)C(=O)O[C@H](O)[C@@H]45)[C@H](O)[C@]3(C2)[C@H]1OC1OC(CO)C(O)C(O)C1O (stereo partly specified) gave a TGI greater than 50 µM.
Molecule NC(=O)c1ccc(Cl)c([N+](=O)[O-])c1 has a TGI greater than 100 µM.
Work on COc1ccc([C@@H]2OC(=O)C3C2C(=O)O[C@H]3c2ccc(OC)c(OC)c2)cc1OC (stereo partly specified) yielded a TGI greater than 100 µM.
COc1cc2c3c(n(CCCNCCCN)c(=O)c2cc1OC)-c1cc2c(cc1C3=O)OCO2 showed a GI50 of 2.45 µM and a TGI of 12.8 µM.
Molecule CCn1c(-c2nonc2N)nc2c(N3CCCC3)nccc21 has a GI50 of 18.2 µM and a TGI greater than 25 µM.
In the case of CCOC(=O)[C@@H](Cc1ccc(CCl)cc1)NC(C)=O, the TGI is reported as 88.8 µM.
Molecule O=C1NC2C(O)CCCCC2C12CCCCC2 (stereo unspecified) has a TGI greater than 100 µM.
Molecule C[CH2][Sn]([CH2]C)([O]C(=O)c1ccc(F)cc1)[O]C(=O)c1ccc(F)cc1 has a GI50 of 60.7 µM and a TGI greater than 100 µM.
For Cc1ccc(C(=O)NC2CC2)cc1-c1ccc2[nH]ncc2c1, the GI50 was greater than 25 µM and the TGI was greater than 25 µM.
With CCC(CO)Nc1nc2c(c(=O)n(C)c(=O)n2C)n1CCO (stereo unspecified) the TGI was greater than 100 µM.
With COc1cc2c(cc1OCc1ccccc1)NC(=O)[C@@H]1CCCN1C2=O the TGI was greater than 100 µM.
COc1ccc2c(c1OC)C(=O)N1C2=Cc2c(cc3c(c2OC)OCO3)CC1N(C)C (stereo unspecified) showed a TGI greater than 100 µM.

Reference: PubChem BioAssay (NCI)
